This note sets out measurements from paper PMC4336329 (PLoS ONE, 2015).

The campaign covered roughly 310,000 compounds. About 14,000 (4.5%) showed an effect of 50% or more. The effect is printed as a negative number. This is one part of the list.
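Also: peak tail current of the secondary pulse compared with the same well before compound.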

In this experiment the target is human ether-à-go-go-related gene (hERG) potassium channel (human, UniProt Q12809). The experiment can be described thus: primary screen, population patch clamp on CHO cells stably expressing hERG.
human ether-à-go-go-related gene (hERG) potassium channel, sequence (Q12809 whole entry, looked up): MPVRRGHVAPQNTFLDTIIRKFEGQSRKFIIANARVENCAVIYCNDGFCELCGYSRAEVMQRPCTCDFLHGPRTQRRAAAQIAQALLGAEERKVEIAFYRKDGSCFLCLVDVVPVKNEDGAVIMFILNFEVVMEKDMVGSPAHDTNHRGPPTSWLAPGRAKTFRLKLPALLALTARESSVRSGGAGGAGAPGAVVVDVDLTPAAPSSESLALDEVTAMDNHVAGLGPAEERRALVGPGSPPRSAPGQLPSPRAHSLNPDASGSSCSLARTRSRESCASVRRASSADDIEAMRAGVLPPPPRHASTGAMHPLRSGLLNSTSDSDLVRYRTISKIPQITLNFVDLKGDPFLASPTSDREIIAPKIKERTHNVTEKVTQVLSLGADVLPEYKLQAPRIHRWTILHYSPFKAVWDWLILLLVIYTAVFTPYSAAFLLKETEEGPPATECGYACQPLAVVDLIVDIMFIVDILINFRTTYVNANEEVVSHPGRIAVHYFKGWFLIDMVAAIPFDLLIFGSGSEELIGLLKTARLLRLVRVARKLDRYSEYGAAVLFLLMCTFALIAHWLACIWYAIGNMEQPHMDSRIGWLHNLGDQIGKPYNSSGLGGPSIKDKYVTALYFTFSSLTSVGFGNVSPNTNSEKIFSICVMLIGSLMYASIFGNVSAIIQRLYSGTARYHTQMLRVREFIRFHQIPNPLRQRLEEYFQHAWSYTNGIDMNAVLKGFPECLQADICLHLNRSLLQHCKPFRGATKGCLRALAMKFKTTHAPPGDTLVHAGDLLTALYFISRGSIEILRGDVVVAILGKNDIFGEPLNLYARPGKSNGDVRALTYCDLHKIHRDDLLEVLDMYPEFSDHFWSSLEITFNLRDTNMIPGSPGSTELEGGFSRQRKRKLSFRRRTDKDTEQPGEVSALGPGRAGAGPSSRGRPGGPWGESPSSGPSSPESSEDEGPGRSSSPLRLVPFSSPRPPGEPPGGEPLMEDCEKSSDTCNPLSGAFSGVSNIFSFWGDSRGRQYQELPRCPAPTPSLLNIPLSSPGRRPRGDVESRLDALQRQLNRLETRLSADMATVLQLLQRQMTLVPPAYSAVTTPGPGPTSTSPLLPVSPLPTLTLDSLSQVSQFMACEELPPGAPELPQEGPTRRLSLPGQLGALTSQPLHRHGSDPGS
Consider `COc1cc(=O)[nH]c(=O)n1CC(=O)c1ccccc1`, for which the “hERG current change (%, negative = inhibition) at 10uM” value was determined as 4.43%. With `Cc1ccc(-c2c3c(=O)n(C)c(=O)n(C)c3cn2Cc2cccnc2)cc1`, the “hERG current change (%, negative = inhibition) at 10uM” value is given as -13.8%. `CCC(C)c1ccccc1NC(=O)C1CCCO1` (stereo not drawn): the “hERG current change (%, negative = inhibition) at 10uM” value was 15%. As to `C=CCOC(=O)C1=C[C@H](c2coc3ccccc3c2=O)C[C@H](OCc2ccc(CO)cc2)O1`, the “hERG current change (%, negative = inhibition) at 10uM” value is recorded as -62.3%.

Consider `O=[N+]([O-])c1cc(C(F)(F)F)ccc1Oc1cccnc1[N+](=O)[O-]`, for which the “hERG current change (%, negative = inhibition) at 10uM” value is recorded as -7.06%.

`CCCCC(=O)Nc1ncc([N+](=O)[O-])s1`: the “hERG current change (%, negative = inhibition) at 10uM” value is given as 0.395%. Consider `COc1ccccc1C(=O)NC(=O)COC(=O)c1cccc(C)c1O`, for which the “hERG current change (%, negative = inhibition) at 10uM” value turned out to be 16.3%.

In the case of `CCOCCOC(=O)c1ccc(-n2cncn2)nc1`, the “hERG current change (%, negative = inhibition) at 10uM” value is given as 1.72%. Take `CCOC(=O)C(NC(C)=O)C(=O)Nc1ccc(C(C)(C)C)cc1` (stereo not drawn): the “hERG current change (%, negative = inhibition) at 10uM” value is 6.04%. As to `COc1ccc(CC(=O)OCC(=O)c2ccc(OC)c(OC)c2)cc1`, the “hERG current change (%, negative = inhibition) at 10uM” value is -10%. The result for `Cc1ccc(C(=O)NCCNC(=O)c2ccc(F)cc2)cn1` reads 6.18%. Consider `Cc1ccc2c(CN(C)Cc3cccc(F)c3)cc(=O)oc2c1C`, for which the “hERG current change (%, negative = inhibition) at 10uM” value is 12.4%. As to `O=C1c2ccccc2C(=O)N1CCN1CCOCC1`, the “hERG current change (%, negative = inhibition) at 10uM” value was found to be 17%. `O=C(OCCN1C(=O)c2ccccc2C1=O)c1ccccc1`: the “hERG current change (%, negative = inhibition) at 10uM” value worked out at 4.41%.

As for `CCOc1ccc(N2C=Nc3ccc(OCC)cc3C2)cc1`, the “hERG current change (%, negative = inhibition) at 10uM” value is reported as -63.9%. The result for `Oc1c(C(c2cccs2)N2CCOCC2)sc2ncnn12` (stereo not drawn) reads 8.08%.

As to `CS(=O)(=O)Nc1ccc(-c2ccc(/C=C3\SC(N)=NC3=O)o2)cc1`, the “hERG current change (%, negative = inhibition) at 10uM” value is 15.5%. Turning to `CC(=O)c1ccc(NC(=O)C(C)OC(=O)COc2ccc(C#N)cc2)cc1` (stereo not drawn), the “hERG current change (%, negative = inhibition) at 10uM” value is reported as -33%. For `COc1ccc(NC(=O)C(=O)NCCC2CCCCN2S(=O)(=O)c2cccs2)cc1` (stereo not drawn), the “hERG current change (%, negative = inhibition) at 10uM” value is listed as -16.5%. Consider `COc1ccc(-c2csc3ncnc(N4CCN(c5ccccc5O)CC4)c23)cc1`, for which the “hERG current change (%, negative = inhibition) at 10uM” value was found to be 9.28%. `COc1cnn(-c2ccccc2)c(=O)c1N(C)C`: the “hERG current change (%, negative = inhibition) at 10uM” value was 4.42%. For `C=CCN(C(=O)CCC(=O)Nc1cc(C)on1)C(C(=O)NC1CCCC1)c1cccnc1` (stereo not drawn) the value was 8.16%. The result for `CC(=O)c1ccc(NC(=O)CCCCCn2nnc3ccccc3c2=O)cc1` reads -2.46%; that for `Cn1c(SCC(=O)Nc2cccc(F)c2)nnc1-c1cc2ccccc2o1`, 5.55%. Turning to `Cc1nnc(SCC(=O)Nc2nc(-c3ccc(F)cc3)cs2)[nH]c1=O`, the “hERG current change (%, negative = inhibition) at 10uM” value is on record as -1.09%.

Take `O=C(CSc1nnc(-c2c[nH]c3ccccc23)o1)c1ccccc1`: the “hERG current change (%, negative = inhibition) at 10uM” value is -1.72%. Turning to `CC(Sc1nc2ccccc2c(=O)n1CC1CCCO1)C(=O)N(C)Cc1ccccc1` (stereo not drawn), the “hERG current change (%, negative = inhibition) at 10uM” value is on record as -59.8%. For `CN(C(=O)c1ccco1)c1nc(-c2ccc(Cl)cc2)cs1` the value was 8.09%; for `COCCNC(=O)C(C)N(c1ccc(OC)cc1)S(C)(=O)=O` (stereo not drawn), 3.69%; for `CSc1ccc(/C=C/C(=O)c2ccc(NC(=O)C(C)C)cc2)cc1`, 14.4%. `COc1cc(/C=C2/SC(=S)N(Cc3ccccc3)C2=O)cc(OC)c1O`: the “hERG current change (%, negative = inhibition) at 10uM” value is listed as 18%. As for `Cc1ccnc(-n2c(C)nc3ccccc3c2=O)c1`, the “hERG current change (%, negative = inhibition) at 10uM” value is given as 12.2%. For the compound `Cc1oncc1-c1cn2ccccc2n1`, the “hERG current change (%, negative = inhibition) at 10uM” value came to 6.61%.

Take `NS(=O)(=O)c1ccc2nc(NC(=O)c3ccc(Br)o3)sc2c1`: the “hERG current change (%, negative = inhibition) at 10uM” value turned out to be 3.81%. The result for `COc1ccc(OC)c(Nc2nc3ccccc3n3cnnc23)c1` reads 16%; that for `Cc1ccc(C2(CC(=O)N3CCCC3)CCOC(C(C)C)C2)cc1` (stereo not drawn), 0.617%; that for `O=C(CCS(=O)(=O)c1ccccc1)Nc1nc(-c2cccs2)cs1`, -23.4%. `CCCC(=O)C1=C(O)C(C(=O)OC)C(C)(C)CC1=NC(C)(C)C` (stereo not drawn): the “hERG current change (%, negative = inhibition) at 10uM” value stood at 10.3%. Regarding `C/C=C\C=C/C(=O)Nc1cccc(C2=NOC3(C2)C[C@@H](C(N)=O)N(C(=O)[C@H]2CCC(=O)N2)C3)c1` (stereo partly drawn), the “hERG current change (%, negative = inhibition) at 10uM” value is 24.1%. The result for `CC1=CC(=C2C(=O)c3ccccc3C2=O)C=C(C)N1C` reads -6.45%. On to `CC(=O)Nc1ccc(OCC(O)CN2CCN(c3ccc(F)cc3)CC2)cc1` (stereo not drawn), for which the “hERG current change (%, negative = inhibition) at 10uM” value was -23.4%. On to `COc1ccc(CC(=O)OCC(=O)N2CCCC(C)C2)cc1` (stereo not drawn), for which the “hERG current change (%, negative = inhibition) at 10uM” value stood at 26%.

Turning to `COc1cccc(NC(=O)Cn2c(=O)oc3cc(S(=O)(=O)N4CCCC4)ccc32)c1`, the “hERG current change (%, negative = inhibition) at 10uM” value was determined as 11.4%.

Consider `CC1=C(C(=O)OC(C)C)C(c2cccs2)NC(=S)N1` (stereo not drawn), for which the “hERG current change (%, negative = inhibition) at 10uM” value is listed as -2.18%. The result for `c1ccc2c(c1)C(=NC1CCCCC1)NC2=NC1CCCCC1` reads -14%.
